Results reported in the antibiotic and cytotoxicity screens of Wong et al. (2023).
The list shows a part of the results.

How the values were obtained:
HSkMC = human skeletal muscle cells; experiment: cytotoxicity call (relative viability < 0.9); details: 10 µM
HepG2 = experiment: cytotoxicity call (relative viability < 0.9); details: 10 µM
S. aureus RN4220 = experiment: growth inhibition call (relative growth <= 0.2); details: 50 µM

Row | SMILES | cytotoxicity call (HSkMC) | cytotoxicity call (HepG2) | growth inhibition call (S. aureus RN4220)
1 | O=C(CN1CCOCC1)N[C@H]1CC[C@@H](CCNC(=O)C2CCCCC2)O[C@H]1CO | inactive | inactive | inactive
2 | COCCOC(=O)N1C(=O)[C@@]2(c3cc(C#CCCO)ccc31)[C@H](C(=O)NC[C@H](O)c1ccccc1)[C@H]1C(=O)O[C@H](c3ccccc3)[C@H](c3ccccc3)N1[C@@H]2c1ccc(O)cc1 | inactive | inactive | inactive
3 | C[C@H](CO)N1C[C@H](C)[C@@H](CN(C)C(=O)Nc2cccc3ccccc23)Oc2c(NC(=O)c3nc4ccccc4s3)cccc2C1=O | active | active | inactive
4 | C[C@@H]1CN([C@@H](C)CO)C(=O)c2cc(C#CC3(O)CCCC3)cnc2O[C@H]1CN(C)S(=O)(=O)c1ccccc1 | inactive | inactive | inactive
5 | Cn1cnc(S(=O)(=O)N2CC[C@H]3NC(=O)C[C@H]32)c1 | inactive | inactive | inactive
6 | Cc1ccc(S(=O)(=O)N(C)C[C@H]2OCCCC[C@H](C)Oc3ccc(NC(=O)Nc4c(C)noc4C)cc3C(=O)N([C@H](C)CO)C[C@H]2C)cc1 | inactive | inactive | inactive
7 | C[C@@H]1CN([C@H](C)CO)S(=O)(=O)c2ccc(C#Cc3ccccc3)cc2O[C@@H]1CN(C)C(=O)Cc1ccccn1 | inactive | inactive | inactive
8 | COc1ccccc1S(=O)(=O)N1C[C@H](O)COC[C@H]2O[C@H](CC(=O)O)CC[C@@H]21 | inactive | inactive | inactive
9 | C/C=C/[C@@H](CCn1cc(CCO[Si](C(C)C)(C(C)C)C(C)C)nn1)[Si](C)(C)c1ccc(OC)cc1 | inactive | inactive | inactive
